Laboratory results from the supplement of paper PMC3334620.
Whole data set: some 33,000 sequences, median “E-score (-0.5 to 0.5)” near -0.035, cut for the highest 2% near 0.35. The list shows a part of the results.

Molecular target: T1, Pdr3 (UniProt P33200)
T1 sequence: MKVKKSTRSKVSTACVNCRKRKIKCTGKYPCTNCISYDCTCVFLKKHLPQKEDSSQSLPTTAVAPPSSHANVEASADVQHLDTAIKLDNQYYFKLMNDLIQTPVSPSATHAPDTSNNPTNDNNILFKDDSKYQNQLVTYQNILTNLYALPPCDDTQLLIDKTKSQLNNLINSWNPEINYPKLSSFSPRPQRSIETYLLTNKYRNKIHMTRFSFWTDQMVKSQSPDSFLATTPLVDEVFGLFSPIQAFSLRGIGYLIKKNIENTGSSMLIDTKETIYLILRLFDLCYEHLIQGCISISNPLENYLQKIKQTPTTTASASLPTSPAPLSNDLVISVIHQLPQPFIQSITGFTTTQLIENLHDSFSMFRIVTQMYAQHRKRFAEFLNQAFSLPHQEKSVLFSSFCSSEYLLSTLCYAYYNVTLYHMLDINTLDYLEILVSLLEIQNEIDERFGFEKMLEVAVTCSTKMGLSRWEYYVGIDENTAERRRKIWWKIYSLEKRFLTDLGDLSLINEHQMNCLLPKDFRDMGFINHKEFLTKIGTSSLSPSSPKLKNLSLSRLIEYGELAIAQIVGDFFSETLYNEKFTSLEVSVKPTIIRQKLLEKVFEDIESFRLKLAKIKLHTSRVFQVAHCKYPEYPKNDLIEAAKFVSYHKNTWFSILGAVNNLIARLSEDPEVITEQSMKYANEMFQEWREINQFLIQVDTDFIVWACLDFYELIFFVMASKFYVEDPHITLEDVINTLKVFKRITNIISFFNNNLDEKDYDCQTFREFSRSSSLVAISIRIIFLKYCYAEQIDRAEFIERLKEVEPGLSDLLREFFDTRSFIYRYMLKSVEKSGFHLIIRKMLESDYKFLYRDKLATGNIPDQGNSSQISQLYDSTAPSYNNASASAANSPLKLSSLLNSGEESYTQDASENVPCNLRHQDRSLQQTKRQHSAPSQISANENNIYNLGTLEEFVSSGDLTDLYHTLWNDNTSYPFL
Assay: PBM E-score (8-mer binding enrichment) (E-score (-0.5 to 0.5)); higher = stronger / more preferred TF binding; most listed sequences are background and not binding sites
Conditions: protein concentration: 200 nM; construct: GST-full length
How it was run: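 GST-tagged yeast TFs (full-length or DNA-binding domain) were made by PURExpress in vitro transcription/translation and applied at about 100-200 nM to universal all-10-mer Agilent arrays. The arrays were made double-stranded by primer extension, on fresh or once-stripped slides. Bound protein was detected with fluorescent anti-GST, and scans were normalised with masliner. Each ungapped eight-base word, pooled with its reverse complement, received an E-score (modified Wilcoxon-Mann-Whitney statistic) from the Universal PBM Analysis Suite.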

Sequence | PBM E-score
GCCCGTCA | 0.138
CATCCATC | -0.14
GCGTCGAC | 0.0956
GTTCTTGA | -0.166
CCCTTACA | -0.124
CCGAGTGC | 0.266
AATCCTGA | -0.0393
CATGTTCA | -0.146
ATTAGTAA | 0.0892
ATCGTTCG | 0.033
GAGCCCTA | -0.0956
CACGAATC | -0.0137
CGTATACA | -0.0682
CACTTCTG | -0.146
CATTTTTA | -0.0675
AGCTGCTA | -0.176
CACTAATC | 0.192
GCTACGAC | 0.0127
TAGAGCCA | -0.316
CATGAGTC | -0.101
AATGAATC | -0.113
CTGGAAAC | -0.0196
GCTACACA | -0.266
AACGACTC | -0.272
CAGCGCGC | 0.163

Sequence | PBM E-score
ACCGGCAG | 0.133
ACCCGGTG | 0.203
CAAATGGC | -0.156
ACGATGAA | -0.0151
CGTTGGAC | -0.181
AAAGAAGA | -0.0922
ACGGTGGC | 0.0177
CCGGTATC | 0.213
AACGCAGG | -0.0195
GACTTGGA | 0.0029
CGACGAAA | -0.0191
CGGTCTGC | 0.0736
AATTCCAT | 0.156
ATTGTCCC | 0.146
GATAACCC | 0.0582
CATAACAC | -0.167
CACCATAG | -0.144
CCAACCTA | -0.132
GGCCAAAA | 0.0915
AGATGCGG | 0.237
ACCGTAGA | -0.0364
AACCACCG | -0.0124
ACGCGGAA | 0.407
CTATCGAA | -0.171
GTACTTCA | 0.102

Sequence | PBM E-score
AGCACTCA | -0.127
GACATTTA | -0.244
CATCATCA | -0.0881
AAGGGCGG | 0.129
CGTACACG | -0.145
CATGCAAA | 0.0294
CATCTCAG | -0.0334
ACGACACC | 0.0551
CAGCTGCG | 0.0791
ATACCCAT | -0.02
CTTTGTAC | -0.22
AACACGTG | -0.0283
ACTGCCAG | -0.0263
GGTCTTAA | -0.251
CTAGGCCA | -0.0772
TCTTGAAA | -0.0175
CATGACAA | -0.0984
GAGAATAC | 0.0471
CCGCATGA | 0.00928
CCCCGTCC | 0.0739
AAGCCGCG | 0.301
CAGCCAGG | -0.24
ACGCCATA | -0.0937
CCTCTAGC | -0.247
ACACTACT | -0.131

Sequence | PBM E-score
CGAATCCC | 0.236
AAATTCAA | -0.0203
CATCCTAA | -0.107
TGACTTAA | -0.204
ACACAAGC | 0.0653
AATTCGGG | 0.153
AAAGCCAG | -0.163
CTGAGGAA | -0.108
CTGCTATC | 0.0994
GGTCTTGA | -0.0774
AGGGTTAA | -0.202
ATAGTATC | 0.103
AATGGACC | -0.0452
AGCAAGTA | -0.149
ACCTGATG | -0.126
AAAACGCA | -0.0435
ACATTTGC | -0.0484
ACAGAATG | -0.122
ACAACCCG | 0.223
GGCCGCTA | 0.125
ACGTGCAC | -0.115
GCCTGAGC | -0.29
ACTACGGG | 0.118
GTGGCAAA | -0.111
ATGGGGGG | -0.122

Sequence | PBM E-score
CTCTCTAA | -0.327
ATCTCCTA | -0.245
CTGAGCCC | -0.114
ACTACACC | -0.0598
AGGTCTCC | -0.114
CAATAGAA | -0.106
CTTTCGGA | 0.335
GAGCATTA | -0.0816
AGGAACGC | -0.00648
AAGAGGGT | -0.351
AGTCAATC | -0.0616
AGTGCCTA | -0.186
ACTGCGAG | -0.0828
AATTTGGG | -0.127
ATCCCAAT | -0.121
AGAGCGCA | -0.215
AACTCGAC | 0.0587
ACCCGATC | 0.0757
AAGTGCAG | -0.224
CACCTAGG | -0.161
CTAGCATC | -0.172
ACAACTGT | -0.167
CGGGACGC | 0.292
AAGAGCTC | -0.0105
GCACGCGC | -0.0476

Sequence | PBM E-score
ACGAGATC | 0.00781
AGGCTTCG | -0.0303
ACGCTCCG | 0.315
GATCTTAA | -0.136
ATGTATAG | -0.0329
CACCGGCA | 0.232
CTGCGTCA | -0.163
AGTTCGTC | -0.0272
ATTGCCTA | -0.262
CGCGTCCC | 0.129
ACTGGGCT | 0.0297
AGTAATTG | 0.0226
GTTAAGGA | -0.071
CTTGCCTA | -0.34
AGACTGAC | -0.192
GCTGAAGC | 0.0189
CTCTCTTC | -0.22
AAGCTCAA | -0.186
AACTTTAG | -0.225
AATACACG | -0.14
CGAGGCGA | 0.0621
AGCCCTCC | -0.0658
AGGCGGAC | 0.211
CGACATGC | 0.0964
AGTTACGA | -0.0164

Sequence | PBM E-score
GACACGTC | 0.0237
CTTCAAGA | -0.23
GATATTAA | 0.247
AGCGAGCG | 0.154
GATCTTAC | -0.113
AGAAGGCT | -0.304
GGGAGTGA | 0.0692
CCTGACCC | -0.0157
CAGCGCTA | -0.0686
TACGGTAA | 0.0846
CTAACCAA | 0.0145
CAGGGTAC | -0.293
CAGCCGGC | 0.324
AACCCGAT | 0.205
CCGTAGTA | 0.0839
GGCTTCAA | -0.0558
ATACTGAT | 0.0814
GCTGAACA | 0.00972
CCTCGAAG | -0.0164
ATAAAGTC | -0.0657
AGGTTATA | -0.155
CCTGAAAG | -0.239
